The campaign covered roughly 310,000 compounds. About 2,200 (0.71%) showed an effect of 50% or more. The effect is printed as a negative number. This is one part of the list.
target: human ether-à-go-go-related gene (hERG) potassium channel (human, UniProt Q12809); test: primary screen, population patch clamp on CHO cells stably expressing hERG
Sequence (Q12809 whole entry, looked up): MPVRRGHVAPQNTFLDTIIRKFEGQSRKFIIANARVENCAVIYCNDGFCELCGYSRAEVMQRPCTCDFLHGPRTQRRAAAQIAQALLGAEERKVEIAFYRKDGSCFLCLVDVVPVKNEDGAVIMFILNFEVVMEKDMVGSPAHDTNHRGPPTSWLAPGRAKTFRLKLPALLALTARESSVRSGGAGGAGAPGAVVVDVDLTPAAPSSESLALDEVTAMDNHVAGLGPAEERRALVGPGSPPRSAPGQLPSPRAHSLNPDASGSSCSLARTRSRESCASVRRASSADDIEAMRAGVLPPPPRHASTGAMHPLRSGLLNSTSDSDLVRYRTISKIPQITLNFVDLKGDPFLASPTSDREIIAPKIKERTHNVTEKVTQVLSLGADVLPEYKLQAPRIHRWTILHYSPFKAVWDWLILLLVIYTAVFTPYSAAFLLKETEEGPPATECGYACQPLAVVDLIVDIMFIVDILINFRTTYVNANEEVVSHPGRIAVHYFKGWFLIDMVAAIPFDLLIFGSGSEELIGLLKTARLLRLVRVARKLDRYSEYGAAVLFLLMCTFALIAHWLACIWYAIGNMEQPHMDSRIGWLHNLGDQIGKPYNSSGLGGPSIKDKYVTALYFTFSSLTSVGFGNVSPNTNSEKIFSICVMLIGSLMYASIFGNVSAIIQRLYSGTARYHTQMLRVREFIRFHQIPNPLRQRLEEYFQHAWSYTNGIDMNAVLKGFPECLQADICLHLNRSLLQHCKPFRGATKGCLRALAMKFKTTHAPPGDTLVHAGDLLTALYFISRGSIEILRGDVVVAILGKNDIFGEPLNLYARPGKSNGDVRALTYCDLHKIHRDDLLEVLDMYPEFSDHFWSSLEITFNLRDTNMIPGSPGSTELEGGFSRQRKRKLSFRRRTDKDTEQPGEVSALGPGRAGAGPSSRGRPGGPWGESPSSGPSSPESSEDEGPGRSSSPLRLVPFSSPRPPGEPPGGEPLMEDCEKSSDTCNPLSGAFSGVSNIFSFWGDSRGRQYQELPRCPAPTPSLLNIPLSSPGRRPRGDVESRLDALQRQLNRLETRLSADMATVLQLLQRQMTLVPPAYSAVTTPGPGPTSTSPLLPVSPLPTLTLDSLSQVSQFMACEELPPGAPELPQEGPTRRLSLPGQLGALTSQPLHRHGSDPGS

| Compound | hERG current change (%, negative = inhibition) at 1uM |
| --- | --- |
| CC(=O)c1ccc(NC(=O)c2cnn3c(C(F)F)cc(C4CC4)nc23)cc1 | 14% |
| O=C(NC1CCCCC1)c1ccc(S(=O)(=O)NCc2cccnc2)cc1 | 3.18% |
| CC(CCN1CCN(c2ccc(F)cc2)CC1)c1ccccc1 (stereo not drawn) | -32.8% |
| O=C1CCCN1c1ccc(C(=O)N(Cc2nnc(-c3ccc(Cl)cc3)o2)C2CC2)cc1 | 3.39% |
| Cc1cc(C)c(C)c(S(=O)(=O)NCc2ccncc2)c1C | 14.7% |
| COc1cc(C(=O)Nc2ccc(N3CCN(C(=O)c4ccc(C)cc4)CC3)cc2)cc(OC)c1OC | 3.84% |
| Cc1c(/C(O)=C2/C(=O)C(=O)N(CCN(C)C)C2c2ccc(C(C)C)cc2)cnn1-c1ccccc1 (stereo not drawn) | 13.4% |
| CC(C)(C)OC(=O)NCCCCCc1nnc(SCc2ccccc2)o1 | 9.3% |
| Cc1ccc(C(NC(=O)c2ccccc2)C(Cl)Cl)cc1 (stereo not drawn) | 10.5% |
| COc1ccc(S(=O)(=O)N2CCOCC2)cc1NC(=O)Cc1sc(C)nc1-c1ccc(F)cc1 | 18.5% |
| COc1ccc(CNC(=O)C2CCCN(C(=O)Nc3ccc(OC)cc3)C2)cc1 (stereo not drawn) | 1.82% |
| CCC(C(=O)N1CCCCCC1)n1nc(C)n2c(cc3occc32)c1=O (stereo not drawn) | 12% |
| CS(=O)(=O)c1ccc(Cl)c(NC(=O)c2cc(=O)[nH]c3ccc(S(=O)(=O)N4CCOCC4)cc23)c1 | 9.61% |
| COc1ccc(OCC(=O)Nc2cccc(-c3nc4ccccc4o3)c2)cc1 | -1.56% |
| COC(=O)c1ccc(CNC(=O)c2ccc3c(c2)S(=O)(=O)N=C2CCCCCN23)cc1 | 3.83% |
| CCOC(=O)c1c(C)[nH]c(N=Nc2cccc(OC)c2)c1C | 6.77% |
| NC(=O)NC1NC(=O)NC1=O (stereo not drawn) | 16.6% |
| Cc1nc(-c2ccc(NC(=O)C3CCCCC3)cc2)cs1 | 3.52% |
| O=C(O)c1nc(Cl)c(Cl)c(N/N=C/c2ccccc2C(F)(F)F)c1Cl | 11.8% |

| Compound | hERG current change (%, negative = inhibition) at 1uM |
| --- | --- |
| COc1cc(/C=C/C(=O)c2ccc(F)cc2)cc(OC)c1OC | 8.39% |
| Cn1ccnc1C(OC(=O)c1ccc(Cl)cc1)C(F)(F)F (stereo not drawn) | 12.7% |
| COc1ccc(C2C(C#N)=C(C)NC3=C2C(=O)c2ccccc23)cc1 (stereo not drawn) | 14.1% |
| O=C(Nn1cnnc1)c1ccncc1 | -0.614% |
| COc1cc2c(cc1OC)CN(C(=O)CN1CCN(S(=O)(=O)c3ccc(C)c(C)c3)CC1)CC2 | 7.13% |
| Cc1ccc(N=N/C(=C\O)C(=O)c2ccc(Cl)cc2)cc1 | 10.6% |
| COc1ccc(C(NC(C)=O)c2cc(Cl)c3cccnc3c2O)cc1OC (stereo not drawn) | 9% |
| NS(=O)(=O)c1ccc(CCNC(=O)c2ccccc2-c2ccccc2)cc1 | 5.72% |
| Cc1ccccc1/C=C\c1nc2ccccc2c(=O)[nH]1 | 13.5% |
| C=CCN1CC(C)/C(=N\O)CC1C (stereo not drawn) | 11.2% |
| CC(=O)Nc1ccc(S(=O)(=O)N/N=C/c2ccc(C)o2)cc1 | 17.2% |
| CN(C)S(=O)(=O)c1ccc(NC(=O)c2ccncc2)cc1 | 9.09% |
| CCc1cc(C(=O)Cc2nc3ccccc3[nH]2)c(O)cc1O | 8.07% |
| CCN(CC)CCN(C(=O)c1ccc(S(=O)(=O)N2CCCC2)cc1)c1nc2cc(C)cc(C)c2s1.Cl | -5.24% |
| COC(=O)c1ccccc1NC(=S)N1CCN(C2CCCCC2)CC1 | 5.54% |
| COC(=O)CN(c1ccccc1F)S(=O)(=O)c1ccc(C)cc1 | 12.1% |
| Cc1nc2scc(-c3cccs3)c2c(=O)n1CC(=O)O | 2.35% |
| COCCn1cnc2c1c(=O)n(Cc1c(F)cccc1Cl)c(=O)n2Cc1ccccc1 | 13.9% |
| COC(=O)CNC(=O)c1c(C)cc(=O)oc1C | 10.4% |

| Compound | hERG current change (%, negative = inhibition) at 1uM |
| --- | --- |
| CC1CCCN(c2ccc(C(=O)NCc3ccco3)cc2[N+](=O)[O-])C1 (stereo not drawn) | -5.97% |
| Cc1nc2c(C)cccn2c1C(=O)c1ccccc1.Cl | 6.45% |
| Cc1ccc(N/C(N)=N/c2nc3c(c(=O)[nH]2)CCCC3)c(C)c1 | 13% |
| O=c1[nH]c2ccccc2n1C1CCCCC1 | 7.5% |
| CC1(C)CC(=O)C(=Cc2cn(-c3ccccc3)nc2-c2ccccc2)C(=O)C1 | -22.6% |
| O=c1c2cc(N3CCOCC3)ccc2[nH]c(=S)n1CCN1CCCC1 | 7.58% |
| Cc1ccc(C)c(NC(=O)c2ccc(S(=O)(=O)C(F)F)cc2)c1 | -0.92% |
| CC(C)OC(=O)CC(=O)c1sc2nc3c(cc2c1N)CN(C)CC3 | 9.54% |
| O=C(Nc1ccc(S(=O)(=O)N2CCN(c3ccccc3)CC2)cc1)c1cccs1 | 8.09% |
| O=c1cc(CO)[nH]cc1OCc1ccccc1 | 15.6% |
| CSc1nc(=S)n(-c2cc(C)ccc2C)c(C)c1C(C)=O | 16.7% |
| COc1ccc(C2c3c(ncn(CCCO)c3=N)Oc3ccc4ccccc4c32)cc1OC (stereo not drawn) | -2.51% |
| Cc1ccc(-c2csc(/C(C#N)=C/Nc3ccccc3SC(F)(F)F)n2)c(C)c1 | 12% |
| Cc1ccc2c(CC(=O)OCn3nnc4ccccc4c3=O)coc2c1 | 13.7% |
| Cc1cc(C)c(NC(=O)CCCn2c(=O)oc3ccccc32)c(C)c1 | 8.19% |
| CC(=O)Oc1ccc(C(=O)Nn2cnnc2)cc1 | -1.61% |
| Cc1ccc(NS(=O)(=O)c2ccc(-c3cnc(C4CC4)o3)cc2)cc1 | 16.9% |
| CCOC(=O)/C(=C/c1ccc(Cl)cc1)NC(=O)c1ccco1 | -7.19% |
| COc1ccc(/C=C2\CCCc3c2nc2ccccc2c3C(=O)OCC(=O)c2c(N)n(C)c(=O)n(C)c2=O)cc1 | 10.9% |
